Assay results reported in article PMC12136788.
The other results are listed elsewhere or left out.

T1: UNK ZnF1-6 (called full-length) (human, UniProt Q9C0B0 30-357)
T1 sequence: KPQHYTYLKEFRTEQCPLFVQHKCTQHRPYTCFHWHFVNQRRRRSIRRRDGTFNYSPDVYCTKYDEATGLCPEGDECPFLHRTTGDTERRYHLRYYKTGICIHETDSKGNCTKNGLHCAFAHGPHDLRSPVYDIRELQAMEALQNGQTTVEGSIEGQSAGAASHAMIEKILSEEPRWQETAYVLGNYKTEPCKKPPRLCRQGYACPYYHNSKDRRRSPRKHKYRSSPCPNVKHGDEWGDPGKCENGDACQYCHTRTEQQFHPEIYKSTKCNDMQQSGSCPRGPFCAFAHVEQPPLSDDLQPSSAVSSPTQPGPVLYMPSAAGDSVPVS

B1: chr3:15690066:15690176:-|CDS|ENSG00000206560|unk|FALSE|bound_elsewhere (ssRNA)
RNA: GGGAGUUCUACAGUCCGACGAUCAGUGUUGGUACAGUCUUUGUUAGAUCUUGAUGUCAGAAAUAGUAGUGGAAGAACACCCCUAGAUCUUGCAGCUUUUAAGGGCCAUGUUGAAUGUGUGGAUGUACUCAUUAAUCAGGGAGCCAACAGAGGAUUGAGCAUCA
B2: chr2:108783740:108783841:+|CDS_3pUTR|ENSG00000153201|msi1_unk|total|mutant (ssRNA)
RNA: GGGAGUUCUACAGUCCGACGAUCCAAUAAUUCUCAAUUUGUUAUAACACUGAAGAAAGCAGAACAUUUGGACUUUAAGCAUGCCGUAUUUGGGUUUGUUAAGGAUGGCAUGGAUACUGUGAAAAAGAUUGAAUCAUUUGGUUCCAACAGAGGAUUGAGCAUCA
B3: chr9:128583791:128583907:+|CDS|ENSG00000197694|unk|total|mutant (ssRNA)
RNA: GGGAGUUCUACAGUCCGACGAUCCAACCAGCAACAGCAAUUUAAUCGCAAUGUUGAGGAUAUUGAAUUGUGGCUAUAUGAAGCCGAAGGUCACUUGGCUUCGGAUGAUUACGGCAAAGAUCUUACCAAUGUGCAGAACCUCCACAACAGAGGAUUGAGCAUCA
B4: chr20:4853394:4853498:-|3pUTR|ENSG00000089057|unk|total|mutant (ssRNA)
RNA: GGGAGUUCUACAGUCCGACGAUCUAUGACCAUGAGCUAAGUUGUUAUUUCUUUCAUUCAUAUCCCUGCUGAAAUAUUGGUACCCGCAACUUAAAGUUGGCAAGUCUCAUCUUCAGUAAUACGGAUGCCAUGGGAGUGGCCAGGCAACAGAGGAUUGAGCAUCA
B5: chr9:132328913:132329014:-|CDS|ENSG00000107290|msi1|total|mutant (ssRNA)
RNA: GGGAGUUCUACAGUCCGACGAUCAGAACAAAAAUCUCAAAACAAUGUAUUGCCAAAAGAGAAACAAUUAAAGAAUGAAGAAUCCGUUAUUUUCUCUUUCCAUGAAAACAAUUGUAAAAUACAGGAAUUUCAUGUUGAUGGUAACAACAGAGGAUUGAGCAUCA
B6: chr20:56369402:56369507:-|3pUTR|ENSG00000087586|unk|FALSE|unique (ssRNA)
RNA: GGGAGUUCUACAGUCCGACGAUCAGAAGAGGCCAUGUGUCUCAGAGCUGUUAAGGGCUUAUUUUUUUAAAACAUUGGAGUCAUAGCAUGUGUGUAAACUUUAAAUAUGCAAAUAAAUAAGUAUCUAUGUCUGUGUGGAGUGCUCAACAGAGGAUUGAGCAUCA
B7: chr22:46316300:46316401:+|CDS|ENSG00000075218|unk|FALSE|unique (ssRNA)
RNA: GGGAGUUCUACAGUCCGACGAUCGGCGGCCAGUGGCUGAACUCCAGUUGCGCUUGGUCAGAAUCUUCUCAAUUGAAUAAGACUAGAAGUAUCAGACGGCGAGAUUCCUGUCUAAAUUCCAAGACAAAGGUUAUGCCUACUCCUCAACAGAGGAUUGAGCAUCA
B8: chrX:53645320:53645442:-|CDS|ENSG00000086758|unk|FALSE|unique (ssRNA)
RNA: GGGAGUUCUACAGUCCGACGAUCUUAUUGGCUUCCUCUGAUAUGCAAGUGGUGCUGGCAGUCCUCAAUCUCCUAUAUGUAUUUAGCAAAAGAUCAAACUACAUCACUCGUCUGGGAUCUGACAAGAGGACCCCGCUGCUAACUCAACAGAGGAUUGAGCAUCA
B9: chr9:37126384:37126485:+|CDS|ENSG00000147905|unk|total|mutant (ssRNA)
RNA: GGGAGUUCUACAGUCCGACGAUCUAUCGAGAUGAGUCAUCCCGUGAACUGAGUGUUGACCGUGAGGUGGAAUUUCAACUCUACCGCCAAAUUCAUUAUGCCCAAGAUCUUGAUGAUGUCAUCAGGGAGGAAGAGCAUGAAGAACAACAGAGGAUUGAGCAUCA
B10: ENSG00000147421:stop:overlap|stop_codon|ENSG00000147421|stop_codon|NA|stop_codon (ssRNA)
RNA: GGGAGUUCUACAGUCCGACGAUCACACUUGGUCCCCUGAGAGAAGGAUGGAAGAAAAUAAAUGGAAGUUGCUUUCUGCAGGGUAGGAGAUUGGCUGGACAGUUACUUCAAUGAGAAUCAAUACCCAGAUGAAGCAAAGAGGGACAACAGAGGAUUGAGCAUCA
B11: chr17:73284618:73284719:-|3pUTR|ENSG00000179604|msi1|FALSE|unique (ssRNA)
RNA: GGGAGUUCUACAGUCCGACGAUCGGGCACUCGCUCAGUCCCUAGGGGCUUGUUUGUUCUUUAUUAUUGUGUUUAAAUCCUUAUAGAGCAAUAUCAGGAUGGUGUUAAUAGGUCUGCCUCAGAAUGAGAAUCAAUCCUUUUAGACAACAGAGGAUUGAGCAUCA
B12: ENSG00000071189:stop:overlap|stop_codon|ENSG00000071189|stop_codon|NA|stop_codon (ssRNA)
RNA: GGGAGUUCUACAGUCCGACGAUCUUGGACCCUUUGUAAUAUUUUAUUUGACAUUUUAUAUCCUCUGCUUUGUGGGUGGUGCUUAGAAGAAAUGAAACGGGAAGCCAGGACUAUUAAGAUUGAUAGAAGAUUGACGGGUGCCAACAACAGAGGAUUGAGCAUCA
B13: chr5:74627411:74627511:-|3pUTR|ENSG00000171617|msi1_unk|total|mutant (ssRNA)
RNA: GGGAGUUCUACAGUCCGACGAUCUUUGUAAAACUGUUAUUUUUUUUUUUUUCACAAUGUGAAACUGAAGGUCAAUAAAUUAUCCGAGAUUUUCUCUUCAUUAUGUGUGUGGGUCUUCAUUUGAAUAAGACACAAUUUGAGGCACAACAGAGGAUUGAGCAUCA
B14: chr19:582815:582998:+|CDS_3pUTR|ENSG00000172270|msi1_unk|FALSE|overlapping (ssRNA)
RNA: GGGAGUUCUACAGUCCGACGAUCUCAUACACUUCCUUCUUUUUUAAAAAAGUUGGGUUUUCUCCAUUCAGGAUUCUGUUCCUUAGGUUUUUUUCCUUCUGAAGUGUUUCACGAGAGCCCGGGAGCUGCUGCCCUGCGGCCCCGCAACAGAGGAUUGAGCAUCA

Each binder was assayed against T1, UNK ZnF1-6 (called full-length) (assay: nsRBNS (natural sequence RNA bind-n-seq); RBNS binding buffer (assumed for nsRBNS): 25 mM Tris pH 7.5, 150 mM KCl, 3 mM MgCl2, 0.01% Triton X-100, 500 ug/ml BSA, 20 U/ml SUPERase-In, 4 C; UNK is unkempt and MSI1 is Musashi-1; names of the RNAs are library labels; protein concentration not given here; high values mean tight binding).

| Binder | binding signal |
| --- | --- |
| B1 | 0.921 enrichment R |
| B2 | 0.395 enrichment R |
| B3 | 0.51 enrichment R |
| B4 | 0.385 enrichment R |
| B5 | 0.518 enrichment R |
| B6 | 0.409 enrichment R |
| B7 | 0.572 enrichment R |
| B8 | 0.899 enrichment R |
| B9 | 0.413 enrichment R |
| B10 | 0.588 enrichment R |
| B11 | 0.82 enrichment R |
| B12 | 0.696 enrichment R |
| B13 | 0.75 enrichment R |
| B14 | 0.839 enrichment R |
